Results: PMC4336329 (PLoS ONE, 2015)
The whole screen tested about 310,000 compounds, of which about 14,000 (4.5%) showed an effect of 50% or more. Effects have a minus sign here. Some of the results follow.

The compounds below were run against human ether-à-go-go-related gene (hERG) potassium channel (human, UniProt Q12809) (assay: primary screen, population patch clamp on CHO cells stably expressing hERG).
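Note: peak tail current of the secondary pulse compared with the same well before compound.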

Sequence of human ether-à-go-go-related gene (hERG) potassium channel (Q12809 whole entry, looked up): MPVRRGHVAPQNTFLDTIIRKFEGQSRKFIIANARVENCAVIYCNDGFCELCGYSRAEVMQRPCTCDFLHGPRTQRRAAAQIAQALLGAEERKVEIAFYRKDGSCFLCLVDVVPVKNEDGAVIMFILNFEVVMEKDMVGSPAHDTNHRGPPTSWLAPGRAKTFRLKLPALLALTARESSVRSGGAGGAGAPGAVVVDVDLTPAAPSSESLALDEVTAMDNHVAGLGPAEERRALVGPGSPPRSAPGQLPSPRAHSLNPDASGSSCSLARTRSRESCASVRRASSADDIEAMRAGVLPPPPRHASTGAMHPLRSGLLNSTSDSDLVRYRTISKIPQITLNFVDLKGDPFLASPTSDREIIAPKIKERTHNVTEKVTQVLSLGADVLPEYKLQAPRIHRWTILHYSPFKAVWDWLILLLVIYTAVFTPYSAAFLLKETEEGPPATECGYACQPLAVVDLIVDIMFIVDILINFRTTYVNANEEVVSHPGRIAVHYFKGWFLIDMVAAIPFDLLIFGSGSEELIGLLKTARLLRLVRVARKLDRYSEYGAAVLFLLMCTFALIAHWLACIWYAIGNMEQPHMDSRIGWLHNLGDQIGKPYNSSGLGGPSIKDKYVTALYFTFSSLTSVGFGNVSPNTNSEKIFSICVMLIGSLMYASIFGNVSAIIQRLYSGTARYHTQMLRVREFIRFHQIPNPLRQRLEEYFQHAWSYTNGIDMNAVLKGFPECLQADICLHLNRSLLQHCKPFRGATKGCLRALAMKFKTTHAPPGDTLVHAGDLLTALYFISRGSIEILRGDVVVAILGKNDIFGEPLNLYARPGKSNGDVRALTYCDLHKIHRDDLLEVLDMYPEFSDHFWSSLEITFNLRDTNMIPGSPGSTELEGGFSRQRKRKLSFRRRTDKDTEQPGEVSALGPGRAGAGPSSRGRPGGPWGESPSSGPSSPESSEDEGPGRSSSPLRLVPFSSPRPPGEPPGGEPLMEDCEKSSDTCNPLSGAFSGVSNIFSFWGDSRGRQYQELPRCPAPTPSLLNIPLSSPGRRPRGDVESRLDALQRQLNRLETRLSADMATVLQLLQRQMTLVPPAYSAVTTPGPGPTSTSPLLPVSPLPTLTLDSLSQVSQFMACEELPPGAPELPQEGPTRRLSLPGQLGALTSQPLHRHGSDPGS

Compound	hERG current change (%, negative = inhibition) at 10uM [%]
CC1(C)OC(=O)C(=CNc2ccccc2F)C(=O)O1	-3.78
Cc1ccc(OCc2nc3c4c(ncn3n2)-c2ccccc2CC42CCCC2)cc1	7.02
CCCOc1ccc(CCC(=O)N/N=C/c2ccco2)cc1	-2.52
O=C(COC(=O)/C=C/c1ccc(Cl)cc1)Nc1ccc2c(c1)OCCO2	18.1
C=CCNC(=S)N/N=C(\C)c1cc(OC)c(OC)c(OC)c1	9.63
COc1ccccc1NC(=O)C(C)OC(=O)CCCOc1ccccc1 (centres unmarked)	-5.61
Cc1ccccc1C(=O)OC1OC(=O)C(Cl)=C1N1CCOCC1 (centres unmarked)	-20.1
Cc1nnc(SCCn2c(N3CCN(C)CC3)nc3c2c(=O)n(C)c(=O)n3C)s1	0.487
COc1cccc(/C=C/C2=CC(C)(C)NC(=S)N2)c1	16
O=S(=O)(c1ccc(N2CCN(CCO)CC2)nc1)N1CCCCC1	11
CC(O)[C@H]1CN=C(N)N1CCc1cc(C(F)(F)F)cc(C(F)(F)F)c1 (some centres unmarked)	13.1
O=C(CC1SC(=Nc2ccccc2)N(Cc2ccccn2)C1=O)Nc1ccc(Br)cc1 (centres unmarked)	16.5
CCC(=O)c1cc(F)c(N2CCN(C(=O)c3ccco3)CC2)cc1C	-14.4
Cc1ccccc1NC(=O)Cc1ccccc1	17.9
Cc1ccc(NC(=S)N2CCN(S(=O)(=O)c3ccccc3)CC2)cc1C	11.6
O=C(COC(=O)c1cccs1)c1ccc2c(c1)OCCO2	-6.42
O=c1c(C/C=C/c2ccccc2)c(O)nc2n1CCCS2	-20.8
CC(C)Cc1nnc(NS(=O)(=O)Cc2ccccc2)s1	17.4
Cc1nnc(NC(=O)Cc2cccs2)s1	-15.2
Nc1ccc(NC(=O)c2cccs2)c(Cl)c1	7.42
Cc1cc(NC(=O)CN2CCCCC2)n(-c2ccccc2)n1	6.65
CCOC(=O)c1cc(NC(=O)CSc2nnc(CN3CCOCC3)n2C)ccc1Cl	-34.5
CCN(CC)C(=O)c1cc2c(=O)n3ccccc3nc2s1	-20.2

Compound	hERG current change (%, negative = inhibition) at 10uM [%]
Cc1ccc(-c2csc(NCCc3nc4cc(Cl)c(Cl)cc4n3CCCO)n2)cc1	-1.21
CCN(CC)c1cc(NCCO)c([N+](=O)[O-])c2nonc12	-25.1
CC(=O)Nc1cccc(C(=O)N/N=C/c2cccnc2)c1	2.32
O=C(O)/C=C\C(=O)Nc1ccccc1C#Cc1ccc(Br)cc1	14.3
CCO[C@H]1OC(C(=O)O)=C[C@@H](c2coc3ccccc3c2=O)[C@@H]1CCCO	7.63
C=CCN1C(=O)C(Cc2ccc(OC)cc2)SC1=Nc1ccc(C(=O)O)cc1 (centres unmarked)	5.21
O=C(NC(Cc1ccccc1)C(=O)N1CCc2ccccc2C1)c1ccccc1 (centres unmarked)	-9.48
Cn1c(CCc2ccccc2)nnc1SCC(=O)N1CCOCC1	-2.56
COc1ccc(N2C(=O)C(CC(=O)O)S/C2=C\C(C)=O)cc1 (centres unmarked)	13
O=C(COc1ccc(/C=N/NC(=O)c2ccccc2)cc1)Nc1ccc([N+](=O)[O-])cc1	15.2
Cc1ccc(C(=O)N/C(=C/c2cccs2)C(=O)NCc2ccco2)cc1	-15.8
O=C(COC(=O)/C=C/c1cn(-c2ccccc2)nc1-c1ccc2c(c1)OCCO2)NC1CCS(=O)(=O)C1 (centres unmarked)	1.05
CCOC(=O)c1ccc(NC(=O)N2CCN(C(=O)C3CCCO3)CC2)cc1 (centres unmarked)	2.68
COCCCn1c2nc3ccccc3nc2c2c(=O)n(Cc3ccccc3Cl)cnc21	11.7
CN(CC(=O)Nc1ccc(N2CCOCC2)cc1)C(=O)Cc1ccccc1	6.7
COc1ccc(S(=O)(=O)N2C3CCC2CC(NC(=O)C2CC2)C3)cc1 (centres unmarked)	14
O=C(CC(=O)Nc1ccc(Cl)c(Cl)c1)N/N=C/c1ccc(O)cc1	-10.3
CCOc1ccccc1/C=C/c1onc(C)c1S(=O)(=O)N1CCC(C(=O)N2CCCCCC2)CC1	-10.8
Cl.O=C(c1cccc(S(=O)(=O)N2CCCC2)c1)N1CCN(Cc2ccccc2)CC1	-14.2
Cc1cccc(C(=O)N=c2sccn2C)c1[N+](=O)[O-]	3.12
O=C(O)C1CCCN1S(=O)(=O)c1ccc(Cl)c(Cl)c1 (centres unmarked)	0.134
CC(C)Cn1c(-c2cccs2)nc2nc3ccccc3nc21	2.09
Cn1cc(/C=N/n2cnc3scc(-c4ccc(Cl)cc4)c3c2=O)c2ccccc21	4.06

Compound	hERG current change (%, negative = inhibition) at 10uM [%]
NS(=O)(=O)c1ccc(CCNC(=O)c2cccc(S(=O)(=O)N3CCCC3)c2)cc1	-5.57
Cc1cc(C(=O)N/N=C/c2sccc2C)no1	17.2
COc1cc(/C=N/NC(=O)c2cc(-c3cccs3)nc3ccccc23)ccc1O	-10.1
O=C(c1ccoc1)N1CCC2(CC1)Oc1ccc(Cl)cc1C(=O)C21CC(c2cccnc2)=NO1 (centres unmarked)	-21.5
CCN(CC)C(=O)CN1CCC(n2c(C)nc3cc(C(F)(F)F)ccc32)CC1	-32.8
O=C1/C(=C/c2cccnc2)CCC/C1=C\c1cccnc1	-16.5
COc1ccc(C(CC(=O)NCc2ccccc2)C(C)C)cc1 (centres unmarked)	-5.99
Cc1ccc(C(=O)CCC(=O)NN2C(=O)NC3(CCCCC3)C2=O)cc1	10
O=C(N/C(=C\c1ccc([N+](=O)[O-])cc1)C(=O)N1CCCCC1)c1ccccc1Br	-59.4
Cc1cc(=O)oc2cc(OCC(=O)OCC(=O)N3CCC(C)CC3)ccc12	12.9
CN(C)S(=O)(=O)c1ccc(Nc2ccc(-c3ccc4c(c3)OCCO4)nn2)cc1	-8.96
Cc1ccc2c(c1)N(CC(=O)N1CCCC(C)C1)C(=O)CO2 (centres unmarked)	3.21
COc1coc(/C=C/C(=O)O)cc1=O	11
CCOC(=O)N1CCN(S(=O)(=O)c2ccc(C(=O)Nc3sc4c(c3C#N)CCC4)cc2)CC1	-2.41
O=C(NCc1n[nH]c(=O)c2ccccc12)C1CC(=O)N(c2ccccc2)C1 (centres unmarked)	-1.81
O=C(c1cccc(Br)c1)c1coc2ccc(O)cc12	14.7
Cc1ccc(S(=O)(=O)N2CCOCC2)cc1NC(=O)COC(=O)COc1cccc2c1OC(C)(C)C2	-6.72
CC1CCN(CCCn2c(=S)[nH]c3ccccc3c2=O)CC1	-56.9
O=C(N/N=C/c1cccc([N+](=O)[O-])c1)c1ccc(COc2ccccc2-c2ccccc2)cc1	0.73
Cc1[nH]n(-c2ccccc2)c(=O)c1/C=N/n1c(C)nc2ccccc2c1=O	11.8
O=C(CCN1C(=O)COc2ccccc21)N1CCCCC1	-6.49
COc1cccc(CC(=O)OCC(=O)c2cc(OC)ccc2OC)c1	-28.7
O=C(C1=C[C@@H](c2ccc(C(F)(F)F)cc2)C[C@@H](OCCCCO)O1)N1CCCCCCC1	-51.3

Compound	hERG current change (%, negative = inhibition) at 10uM [%]
CCC(C)(C)NC(=O)CN(Cc1ccc2c(c1)OCO2)C(=O)CCC(=O)Nc1ccccn1	-22.3
O=[N+]([O-])c1cc([N+](=O)[O-])c(Oc2cc(F)ccc2F)cc1NN1CCCCC1	24.4
CCc1ccccc1NC(=O)CC1SCCNC1=O (centres unmarked)	26.3
CCCNC(=O)c1ccc2nc(-c3ccccc3)c(-c3ccccc3)nc2c1	9.38
CN(C)/C=N/C(=S)Nc1ccc(Br)cc1F	2.38
NS(=O)(=O)c1ccc(CNS(=O)(=O)c2ccc3ccccc3c2)cc1	1.74
COc1ccc(Cc2nc(-c3cccs3)no2)cc1	-4.27
NC(=O)CCS(=O)(=O)c1ccccc1	7.17
CCNC(=O)N1CCOCC1	8.3
CCC(=O)c1ccc(SC(=O)N(C)C)cc1O	12.1
COc1ccccc1Oc1ccc(S(=O)(=O)N2CCOCC2)cc1S(=O)(=O)N1CCOCC1	-20.1
CCOC(=O)C1CCN(C(=O)/C=C/c2ccccc2OC)CC1	-24
O=C(NNc1nc2ccccc2nc1C(F)(F)F)c1ccccc1	11.9
O=C1CCNc2c(Cl)cc(Cl)cc21	-2.74
O=C(CCC(=O)c1cccs1)Nc1nnc(C2CC2)s1	5.89
COc1ccc(CC(NC(C)=O)C(=O)N2CCN(C(=O)Nc3cccc(Cl)c3)CC2)cc1OC (centres unmarked)	4.89
CCC1CCCCN1CCCNC(=O)c1ccc(CS(=O)(=O)c2ccccc2C)o1 (centres unmarked)	-26.5
O=C1C2CC=CCC2C(=O)N1CC1CCCO1 (centres unmarked)	-3.68
Fc1ccc(Br)cc1/C=N/n1cnnc1	11
O=S(=O)(Nn1c(O)c(C=C2N=c3ccccc3=N2)sc1=S)c1ccccc1	4.52
